Test results: PubChem BioAssay (Tox21)
Values joined by “and” are separate entries in the source; they are usually repeats but may differ in a detail not shown here. Equal values may be shown once. This list was built around the results that the source calls inconclusive (neither active nor inactive); the mix of calls is not that of the screen. For some assays here: Potencies of inconclusive entries are doubtful fits and often do not repeat. Active and inactive are the calls of the source. Unless noted, calls come from the whole dose curve; as a rule, active = well fitted curve in the direction sought with a large enough effect in the repeat runs; inconclusive = weak or mixed curves; inactive = no such curve, though single readings can be large; an effect the other way counts as inactive or inconclusive.

Experiments:
[1] = target: Estrogen receptor beta (Homo sapiens) (UniProt Q92731); experiment: qHTS assay to identify small molecule agonists of the estrogen receptor beta (ER-beta) signaling pathway (AID 1259377; active = well fitted activation curve with a large enough effect in the signal ratio in the repeat runs, not every such curve was filed as active; inconclusive = weak or mixed curves, or effect the other way; the % refers to the signal ratio; note: potency is the fitted concentration of half-maximal effect; for activation: % is set by controls: 0 for no effect and ±100 for the full control effect); settings: ER-beta-UAS-bla HEK293T, beta-lactamase FRET ratio, 16 h
UniProt Q92731, sequence (Q92731 whole entry, looked up): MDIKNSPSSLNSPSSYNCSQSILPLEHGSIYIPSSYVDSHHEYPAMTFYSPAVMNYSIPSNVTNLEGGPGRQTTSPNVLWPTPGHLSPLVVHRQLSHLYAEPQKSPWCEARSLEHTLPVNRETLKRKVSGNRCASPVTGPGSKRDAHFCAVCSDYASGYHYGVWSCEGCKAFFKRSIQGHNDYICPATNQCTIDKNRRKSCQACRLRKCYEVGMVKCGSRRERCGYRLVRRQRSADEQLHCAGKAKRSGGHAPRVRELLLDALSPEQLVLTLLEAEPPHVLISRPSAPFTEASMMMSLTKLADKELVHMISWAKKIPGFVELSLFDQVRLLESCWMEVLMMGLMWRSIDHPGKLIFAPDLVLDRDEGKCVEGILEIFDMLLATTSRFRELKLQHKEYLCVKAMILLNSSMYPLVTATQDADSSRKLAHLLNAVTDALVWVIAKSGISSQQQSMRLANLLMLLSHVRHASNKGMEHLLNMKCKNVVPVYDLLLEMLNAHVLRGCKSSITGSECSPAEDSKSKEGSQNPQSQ
In short: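 ER-beta-UAS-bla HEK293T cells in medium with 2% charcoal-stripped FBS were exposed to compounds for 16 h at 37C. Beta-lactamase reporter activity was read as fluorescence after 2 h with LiveBLAzer B/G FRET substrate at room temperature.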

[2] = target: Estrogen receptor beta (Homo sapiens) (UniProt Q92731); experiment: qHTS assay to identify small molecule antagonists of the estrogen receptor beta (ER-beta) signaling pathway (AID 1259378; active = well fitted inhibition curve with a large enough effect in the signal ratio in the repeat runs, not every such curve was filed as active; inconclusive = weak or mixed curves, or effect the other way; inactive = no such curve, though single readings can be large or run the other way; the % refers to the signal ratio; note: potency is the fitted concentration of half-maximal effect; for activity, negative = inhibition: % is set by controls: 0 for no effect and ±100 for the full control effect); settings: ER-beta-UAS-bla HEK293T, beta-lactamase FRET ratio, 16 h; for Potency: activity, negative = inhibition: at 92.4 µM (top of the series) unless noted
In short: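 ER-beta-UAS-bla HEK293T cells in 2% charcoal-stripped FBS medium treated with compound plus 1nM final 17-beta-estradiol for 16 hr at 37C. Beta-lactamase reporter read by FRET substrate fluorescence after 2 hours at room temperature.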

[3] = qHTS assay to identify small molecule agonists of the androgen receptor (AR) signaling pathway in the presence of an antagonist - cell viability counter screen (AID 1259379); note: potency is the fitted concentration of half-maximal effect; nearly all actives have a fitted effect of over 25% in size
In short: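 Counter screen for cell viability run in parallel with the AR agonist-mode luciferase assay. MDA-kb2 cells were co-treated with nilutamide (3.0uM final) and compounds, then incubated 16 hr at 37C, and CellTiter-Fluor fluorescence was measured.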

[4] = qHTS assay to identify small molecule agonists of the estrogen receptor beta (ER-beta) signaling pathway - cell viability counter screen (AID 1259380); note: potency is the fitted concentration of half-maximal effect; nearly all actives have a fitted effect of over 30% in size
In short: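 In this qHTS counter screen, HEK293T cells carrying an ER-beta/UAS beta-lactamase reporter, grown in 2% charcoal-stripped FBS, received compound for 16 hr; ATP-based CellTiter-Glo luminescence was then read after 30 min at room temperature.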

[5] = qHTS assay to identify small molecule antagonists of the estrogen receptor beta (ER-beta) signaling pathway - cell viability counter screen (AID 1259382); note: potency is the fitted concentration of half-maximal effect; nearly all actives have a fitted effect of over 55% in size
In short: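 HEK293T ER-beta-UAS-bla, 2% charcoal-stripped FBS; compounds + 1nM E2 16 hr 37C; CellTiter-Glo luminescence, 30 min RT.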

[6] = qHTS assay to identify small molecule agonists of the estrogen receptor alpha (ER-alpha) signaling pathway in the presence of an antagonist - cell viability counter screen (AID 1259386);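 note: potency is the fitted concentration of half-maximal effect; cells exposed to compounds for 22 h at 37 °C before the viability read; nearly all actives have a fitted effect of over 30% in size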
In short: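 Steps: 5-day stripped-FBS culture; seed and incubate 24hr; add ICI-182,780 (10.0nM final); pin 15-point compound titration; incubate 22hr at 37C; add CellTiter-Fluor at 21hr; read fluorescence.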

[7] = target: Progesterone receptor (Homo sapiens) (UniProt P06401); experiment: qHTS assay to identify small molecule agonists of the progesterone receptor (PR) signaling pathway (AID 1346784; calls by dose curve; note: % is set by controls: 0 for no effect and ±100 for the full control effect; nearly all actives have a fitted effect of over 30% in size); settings: PR-UAS-bla HEK293T, beta-lactamase FRET ratio, 16 h; activation: at 92.4 µM (top of the series) unless noted
UniProt P06401, sequence (P06401 whole entry, looked up): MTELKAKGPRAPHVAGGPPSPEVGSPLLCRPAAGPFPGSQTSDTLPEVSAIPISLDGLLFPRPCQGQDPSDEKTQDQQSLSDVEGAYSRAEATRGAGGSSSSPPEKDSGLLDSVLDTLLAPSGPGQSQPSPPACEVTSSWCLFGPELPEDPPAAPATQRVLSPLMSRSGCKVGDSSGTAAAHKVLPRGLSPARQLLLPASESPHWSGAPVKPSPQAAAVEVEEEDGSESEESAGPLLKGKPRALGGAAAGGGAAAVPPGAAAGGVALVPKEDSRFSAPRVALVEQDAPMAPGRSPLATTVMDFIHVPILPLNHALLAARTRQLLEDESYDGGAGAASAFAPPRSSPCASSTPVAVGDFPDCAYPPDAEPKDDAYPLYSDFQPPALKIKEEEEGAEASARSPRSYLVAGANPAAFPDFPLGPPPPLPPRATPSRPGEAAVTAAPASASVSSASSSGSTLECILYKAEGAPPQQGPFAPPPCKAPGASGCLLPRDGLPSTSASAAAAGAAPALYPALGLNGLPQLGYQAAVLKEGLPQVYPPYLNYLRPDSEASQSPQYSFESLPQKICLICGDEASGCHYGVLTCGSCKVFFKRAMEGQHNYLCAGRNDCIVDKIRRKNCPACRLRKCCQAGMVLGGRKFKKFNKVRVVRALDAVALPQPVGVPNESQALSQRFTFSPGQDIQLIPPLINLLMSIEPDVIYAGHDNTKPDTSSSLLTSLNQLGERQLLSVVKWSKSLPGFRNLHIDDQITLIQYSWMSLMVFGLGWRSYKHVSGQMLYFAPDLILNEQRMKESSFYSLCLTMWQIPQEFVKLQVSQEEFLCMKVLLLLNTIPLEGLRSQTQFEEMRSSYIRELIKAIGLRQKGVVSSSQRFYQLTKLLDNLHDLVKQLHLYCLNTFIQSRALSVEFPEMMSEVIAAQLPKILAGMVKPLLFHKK
In short: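 PR-UAS-bla HEK 293T cells (beta-lactamase reporter under UAS) in 2% charcoal-stripped FBS, dosed with 23 nL compound after 6 hr, incubated 16hr at 37C. LiveBLAzer B/G FRET substrate added, fluorescence read after 2 hours.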

[8] = target: Progesterone receptor (Homo sapiens) (UniProt P06401); experiment: qHTS assay to identify small molecule antagonists of the progesterone receptor (PR) signaling pathway (AID 1346795; active = well fitted inhibition curve with a large enough effect in the signal ratio in the repeat runs, not every such curve was filed as active; inconclusive = weak or mixed curves; the % refers to the signal ratio; note: potency is the fitted concentration of half-maximal effect; for activity change, negative = inhibition: % is set by controls: 0 for no effect and ±100 for the full control effect); settings: PR-UAS-bla HEK293T, beta-lactamase FRET ratio, 16 h; activity change, negative = inhibition: at 92.4 µM (top of the series) unless noted
In short: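 PR-UAS-bla HEK293T cells with beta-lactamase reporter under UAS control, in 2% charcoal-stripped FBS, treated with compounds plus 1 nM promegestone (R5020, final) for 16 hr at 37C. Read-out: FRET beta-lactamase substrate fluorescence after 2 hr at room temperature.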

[9] = qHTS assay to identify small molecule antagonists of the progesterone receptor (PR) signaling pathway - cell viability counter screen (AID 1346798); note: potency is the fitted concentration of half-maximal effect; nearly all actives have a fitted effect of over 50% in size
In short: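 PR-UAS-bla HEK293T cells, 3,000/well in 2% charcoal-stripped FBS medium, dosed with compounds plus R5020 agonist and incubated 16 h at 37C. Viability then measured in the same wells by CellTiter-Glo luminescence after 30 min at RT.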

[10] = qHTS assay to identify small molecule agonists of the progesterone receptor (PR) signaling pathway - cell viability counter screen (AID 1346799; calls by dose curve; note: potency is the fitted concentration of half-maximal effect; nearly all actives have a fitted effect of over 45% in size)
In short: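 Counter screen in the PR-UAS-bla HEK293T wells (2% charcoal-stripped FBS, 16 h compound exposure at 37 C) after the bla read. CellTiter-Glo added, 30 min at room temperature, luminescence read as cell viability.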

[11] = qHTS assay to identify small molecule antagonists of the TGF-beta/Smad signaling pathway - cell viability counter screen (AID 1346824); note: potency is the fitted concentration of half-maximal effect; nearly all actives have a fitted effect of over 50% in size
In short: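 SBE-bla HEK 293T cells, incubated overnight, then compound plus 0.25 ng/mL TGF-beta1 (stock added) for 5 hr at 37 C. Viability was read in the same wells by CellTiter-Glo luminescence after 30 min at room temperature.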

[12] = qHTS assay to identify small molecule agonists of the TGF-beta/Smad signaling pathway - cell viability counter screen (AID 1346829); note: potency is the fitted concentration of half-maximal effect; nearly all actives have a fitted effect of over 45% in size
In short: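 Same-well cytotoxicity: CellTiter-Glo added after the 2 hr room-temperature beta-lactamase substrate step, luminescence measured 30 min later; cells had 5 hr of compound at 37 C.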

[13] = qHTS assay to identify small molecule antagonists of the TGF-beta/Smad signaling pathway (AID 1346924; active = well fitted inhibition curve with a large enough effect in the signal ratio in the repeat runs, not every such curve was filed as active; inconclusive = weak or mixed curves; the % refers to the signal ratio; note: potency is the fitted concentration of half-maximal effect); settings: SBE-bla HEK293T, TGF-beta/Smad reporter, beta-lactamase ratio; activity, negative = inhibition: at 76.8 µM (top of the series) unless noted
In short: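 Read-out was FRET-substrate fluorescence (405 nm excitation; 460 and 530 nm emission) after 2 h at room temperature. Before that, cells carrying a Smad-binding-element beta-lactamase reporter in HEK 293T had been stimulated 5 h at 37 C with TGF-beta1 (0.25 ng/mL addition solution) in the presence of test compound.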

[14] = target: Thyrotropin receptor (Homo sapiens) (UniProt P16473); experiment: qHTS assay to identify small molecule antagonists of the thyroid stimulating hormone receptor (TSHR) signaling pathway (AID 1259385; calls by dose curve; note: nearly all actives have a fitted effect of over 20% in size; note: potency is the fitted concentration of half-maximal effect; for activity change, negative = inhibition: % is set by controls: 0 for no effect and ±100 for the full control effect); settings: TSHR-HEK293 cAMP HTRF, TSH-stimulated antagonist mode; activity change, negative = inhibition: at 92.4 µM (top of the series) unless noted
UniProt P16473, sequence (P16473 whole entry, looked up): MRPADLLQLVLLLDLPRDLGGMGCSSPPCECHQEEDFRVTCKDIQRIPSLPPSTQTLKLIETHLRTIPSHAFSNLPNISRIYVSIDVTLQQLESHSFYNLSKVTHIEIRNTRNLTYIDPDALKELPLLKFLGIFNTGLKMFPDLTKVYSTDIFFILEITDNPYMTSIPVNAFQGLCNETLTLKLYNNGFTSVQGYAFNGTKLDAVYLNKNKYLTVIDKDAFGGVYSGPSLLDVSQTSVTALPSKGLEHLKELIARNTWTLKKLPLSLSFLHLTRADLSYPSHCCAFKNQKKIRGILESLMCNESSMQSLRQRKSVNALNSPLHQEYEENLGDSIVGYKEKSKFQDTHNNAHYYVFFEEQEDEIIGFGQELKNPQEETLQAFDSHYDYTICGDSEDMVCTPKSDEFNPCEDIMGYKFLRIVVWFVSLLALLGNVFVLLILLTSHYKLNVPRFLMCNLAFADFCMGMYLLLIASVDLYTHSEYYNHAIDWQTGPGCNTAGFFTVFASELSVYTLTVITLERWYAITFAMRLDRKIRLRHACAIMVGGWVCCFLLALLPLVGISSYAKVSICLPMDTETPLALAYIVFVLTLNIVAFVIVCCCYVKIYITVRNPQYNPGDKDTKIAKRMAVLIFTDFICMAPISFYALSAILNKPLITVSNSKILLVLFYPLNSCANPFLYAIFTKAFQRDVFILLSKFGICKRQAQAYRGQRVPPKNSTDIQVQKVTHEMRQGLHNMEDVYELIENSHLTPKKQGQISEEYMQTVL
In short: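 TSHR-HEK293 cells (800/well) plated 18 h, then compounds with Ro20-1724 and TSH at 1.5 ng/mL final, 30 min at room temperature. cAMP quantified by HTRF (cAMP-d2/anti-cAMP-cryptate, 1 h); 15 concentrations in triplicate.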

[15] = activation: at 92.4 µM (top of the series) unless noted
Tags give direction and shape of the fitted curve or compound fluorescence and quenching.

Cc1cc(C)c(NC(=O)CN(CC(=O)O)CC(=O)O)c(C)c1Br
activation [1, 15]: inconclusive: 13% [at 42.5 µM]

CNC(=O)c1ccccc1Sc1ccc2c(/C=C/c3ccccn3)n[nH]c2c1
Potency [1, 15]: inconclusive: 33.5 µM [rising, single point] | Potency [2]: inconclusive: 33.5 µM [rising, single point] | Potency [3]: active: 26.6 µM | Potency [4]: inconclusive: 33.5 µM [cytotoxic, single point] | Potency [5]: inconclusive: 33.5 µM [cytotoxic] | Potency [6]: inconclusive: 21.1 µM [cytotoxic, partial curve] | activation [7]: inconclusive: -18.9% [at 42.5 µM] | Potency [8]: active: 16.8 µM | Potency [9]: inconclusive: 33.5 µM [cytotoxic, single point] | Potency [10]: active: 33.5 µM | Potency [11]: inconclusive: 26.8 µM [cytotoxic, single point] | Potency [12]: inconclusive: 26.8 µM [cytotoxic, single point]

CC(C)Cc1ccc(C(C)C(=O)O)cc1 (configuration not stated)
Potency [1, 15]: inactive

c1cc(C(c2ccc(OCC3CO3)cc2)C(c2ccc(OCC3CO3)cc2)c2ccc(OCC3CO3)cc2)ccc1OCC1CO1 (configuration not stated)
Potency [1, 15]: inconclusive: 40 µM [fluorescent, partial curve] | activation [1, 15]: inconclusive: 2.96% | Potency [13]: inconclusive: 57 µM [fluorescent, partial curve] and inconclusive: 48.9 µM [fluorescent]

C=CC/C=C/C
activation [1, 15]: inconclusive: 16.6%

O=C1OC(c2ccc(O)cc2)(c2ccc(O)cc2)c2ccccc21
Potency [1, 15]: inconclusive: 54.1 µM [rising, partial curve] | activation ([1]; at 42.5 µM (top of the series)): inconclusive: 4.2% | activation ([1]; at 92.4 µM (top of the series)): inconclusive: 1.22% | Potency [2]: inconclusive: 54.1 µM [partial curve] and active: 15.4 µM and inconclusive: 5.31 µM [inhibitor, full curve] | Potency [5]: inconclusive: 54.1 µM [cytotoxic, partial curve] | Potency [14]: inconclusive: 76.4 µM [falling, single point] | Potency [6]: inconclusive: 68.1 µM [cytotoxic, single point] | Potency [8]: active: 24.3 µM and inconclusive: 26.6 µM | activity change, negative = inhibition [8]: inconclusive: -40.1% | Potency [9]: inconclusive: 24.3 µM [rising, full curve] | Potency [12]: inconclusive: 26.8 µM [cytotoxic, single point] | activity, negative = inhibition [13]: inconclusive: 21.5%

CC(O)CN(CCN(CC(C)O)CC(C)O)CC(C)O (configuration not stated)
activation [1, 15]: inconclusive: 14.1%

CC1(C)C(=O)N(Br)C(=O)N1Br
Potency [1, 15]: inconclusive: 34.4 µM [activator, partial curve]

Cc1nc(Nc2ncc(C(=O)Nc3c(C)cccc3Cl)s2)cc(N2CCN(CCO)CC2)n1
Potency [1, 15]: inactive | Potency [2]: active: 23.7 µM | Potency [3]: inconclusive: 23.7 µM [cytotoxic, partial curve] | Potency [4]: inconclusive: 0.237 µM [cytotoxic, partial curve] | Potency [14]: active: 26.6 µM | Potency [6]: inconclusive: 0.168 µM [cytotoxic, full curve] | Potency [8]: active: 13.3 µM | activity, negative = inhibition [13]: inconclusive: -1.13% [at 35.3 µM]

Cc1c(OCC(F)(F)F)ccnc1CS(=O)c1nc2ccccc2[nH]1 (configuration not stated)
Potency [1, 15]: inconclusive: 15 µM [fluorescent, partial curve, poor fit] | activity, negative = inhibition ([2]; at 42.5 µM (top of the series)): inconclusive: -32.1% | activity, negative = inhibition ([2]; at 92.4 µM (top of the series)): inconclusive: -32.2% | Potency [3]: inconclusive: 68.6 µM [cytotoxic, single point] | Potency [6]: inconclusive: 61.1 µM [cytotoxic, partial curve] and inconclusive: 29.8 µM [cytotoxic, partial curve, poor fit] | Potency [8]: inconclusive: 26.6 µM [falling, partial curve, poor fit] | activity change, negative = inhibition [8]: inconclusive: -26.1% | activity, negative = inhibition [13]: inconclusive: -30.7% [at 35.3 µM]

CCCCCCCC(=O)OC
activation [1, 15]: inconclusive: 1.86% | Potency [2]: inactive

COc1ccccc1NC(=O)c1cc2ccccc2cc1O
Potency [1, 15]: inconclusive: 68.6 µM [rising, single point] | Potency [2]: active: 17.2 µM | Potency [3]: inconclusive: 38.6 µM [cytotoxic, partial curve] | Potency [5]: inconclusive: 61.1 µM [cytotoxic, single point] | activity change, negative = inhibition [14]: inconclusive: -12.9% | activation [7]: inconclusive: -17.6% | Potency [8]: active: 24.3 µM | Potency [9]: inconclusive: 68.6 µM [cytotoxic, single point] | Potency [10]: inconclusive: 68.6 µM [cytotoxic, single point] | Potency [11]: active: 49 µM | Potency [12]: inconclusive: 54.9 µM [cytotoxic] | Potency [13]: inconclusive: 61.6 µM [rising, partial curve, poor fit]
